# Some of the results follow.
# B1: B1567 (Bifidobacterium sp) (protein)
# chain: MKFTTAKKAVALTGAVAMLVSVAACGSDSGKSSQPAQDSDVKEITVWAWEPSLTQVAKDFEKETGIKVDLKNVGTNTKEYTQLDNAIEAGSGAPDVAQVEYYAVPQYAIKGNLLDITDKTSGYKDFYTPGPWASVQFAGKVYGLPMDSGPMAFFYNKEVFDKAGVDAEQIKTWDQYYDAAKKIHALGDNYYITSDTGDAGFFDSMTWLAGAKPFQTSSDGSEVTVNLTEDKGVKTFTDFWQKLLDEGLLDTKTAGWSEDWFKGMVDGTIASLFTGAWMPANLANSAADGAGKWRVTQMPTADGSTTNSENGGSSLAVLASTKKADAAYQFIEYANHGAGVATRVAGGAFPADKASLEKDSFKNATTVKNADGQDVDYFGGQKYNEVLAQAAENVSSGYQFLPFEVKARTIFGDYFGKSYTGDQKLSDGVAAWQKALQDYGKDQGFTVK
# Legend:
# Assay in all cases: glycan array binding signal (z-score within array); higher = stronger binding
# Conditions in all cases: glycan notation: IUPAC condensed, linker removed
# [1] = biological target: Gal(b1-4)GlcNAc(b1-2)Man(a1-6)[Man(a1-3)]Man(b1-4)GlcNAc(b1-4)GlcNAc
# Procedure, shortened: (§1)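 The binding signal is a Z-score computed within each array and averaged over linkers. Arrays of the same protein sequence at different concentrations or buffers were also averaged together. Data originate from 3228 arrays in the Consortium for Functional Glycomics database, kept only where the protein sequence was available.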
# [2] = biological target: Gal(b1-4)GlcNAc(b1-2)[Gal(b1-4)GlcNAc(b1-4)]Man(a1-3)[Gal(b1-4)GlcNAc(b1-2)Man(a1-6)]Man(b1-4)GlcNAc(b1-4)GlcNAc
# Procedure, shortened: as §1
# [3] = biological target: Gal(b1-4)GlcNAc(b1-2)[Gal(b1-4)GlcNAc(b1-4)]Man(a1-3)[Gal(b1-4)GlcNAc(b1-2)[Gal(b1-4)GlcNAc(b1-6)]Man(a1-6)]Man(b1-4)GlcNAc(b1-4)GlcNAc
# Procedure, shortened: as §1
# [4] = biological target: Gal(b1-4)GlcNAc(b1-2)[Gal(b1-4)GlcNAc(b1-4)]Man(a1-3)[GlcNAc(b1-4)][Gal(b1-4)GlcNAc(b1-2)Man(a1-6)]Man(b1-4)GlcNAc(b1-4)GlcNAc
# Procedure, shortened: as §1
# [5] = biological target: Gal(b1-4)GlcNAc(b1-2)[Gal(b1-4)GlcNAc(b1-4)]Man(a1-3)[GlcNAc(b1-4)][Gal(b1-4)GlcNAc(b1-2)[Gal(b1-4)GlcNAc(b1-6)]Man(a1-6)]Man(b1-4)GlcNAc(b1-4)GlcNAc
# Procedure, shortened: as §1
# [6] = biological target: Gal(b1-4)GlcNAc(b1-2)[Gal(b1-4)GlcNAc(b1-6)]Man(a1-6)[Gal(b1-4)GlcNAc(b1-2)Man(a1-3)]Man(b1-4)GlcNAc(b1-4)GlcNAc
# Procedure, shortened: as §1
# [7] = biological target: Gal(b1-4)GlcNAc(b1-2)[Gal(b1-4)GlcNAc(b1-6)]Man(a1-6)[Gal(b1-4)GlcNAc(b1-2)Man(a1-3)]Man(b1-4)GlcNAc(b1-4)[Fuc(a1-6)]GlcNAc
# Procedure, shortened: as §1
# [8] = biological target: Gal(b1-4)GlcNAc(b1-2)[Gal(b1-4)GlcNAc(b1-6)]Man(a1-6)[GlcNAc(b1-4)][Gal(b1-4)GlcNAc(b1-2)Man(a1-3)]Man(b1-4)GlcNAc(b1-4)GlcNAc
# Procedure, shortened: as §1
# [9] = biological target: Gal(b1-4)GlcNAc(b1-2)[Gal(b1-4)GlcNAc(b1-6)]Man(a1-6)[GlcNAc(b1-4)][Gal(b1-4)GlcNAc(b1-2)[Gal(b1-4)GlcNAc(b1-4)]Man(a1-3)]Man(b1-4)GlcNAc(b1-4)[Fuc(a1-6)]GlcNAc
# Procedure, shortened: as §1
# [10] = biological target: Gal(b1-4)GlcNAc(b1-3)Gal(b1-3)GalNAc
# Procedure, shortened: as §1
# [11] = biological target: Gal(b1-4)GlcNAc(b1-3)Gal(b1-3)GlcNAc
# Procedure, shortened: as §1
# [12] = biological target: Gal(b1-4)GlcNAc(b1-3)Gal(b1-4)Glc
# Procedure, shortened: as §1
# [13] = biological target: Gal(b1-4)GlcNAc(b1-3)Gal(b1-4)GlcNAc
# Procedure, shortened: as §1
# [14] = biological target: Gal(b1-4)GlcNAc(b1-3)Gal(b1-4)GlcNAc(b1-2)Man(a1-3)[Gal(b1-4)GlcNAc(b1-3)Gal(b1-4)GlcNAc(b1-2)Man(a1-6)]Man(b1-4)GlcNAc(b1-4)GlcNAc
# Procedure, shortened: as §1
# [15] = biological target: Gal(b1-4)GlcNAc(b1-3)Gal(b1-4)GlcNAc(b1-2)Man(a1-3)[Gal(b1-4)GlcNAc(b1-3)Gal(b1-4)GlcNAc(b1-2)Man(a1-6)]Man(b1-4)GlcNAc(b1-4)[Fuc(a1-6)]GlcNAc
# Procedure, shortened: as §1
# [16] = biological target: Gal(b1-4)GlcNAc(b1-3)Gal(b1-4)GlcNAc(b1-2)[Gal(b1-4)GlcNAc(b1-3)Gal(b1-4)GlcNAc(b1-6)]Man(a1-6)[Gal(b1-4)GlcNAc(b1-3)Gal(b1-4)GlcNAc(b1-2)Man(a1-3)]Man(b1-4)GlcNAc(b1-4)GlcNAc
# Procedure, shortened: as §1
# [17] = biological target: Gal(b1-4)GlcNAc(b1-3)Gal(b1-4)GlcNAc(b1-2)[Gal(b1-4)GlcNAc(b1-3)Gal(b1-4)GlcNAc(b1-6)]Man(a1-6)[Gal(b1-4)GlcNAc(b1-3)Gal(b1-4)GlcNAc(b1-2)Man(a1-3)]Man(b1-4)GlcNAc(b1-4)[Fuc(a1-6)]GlcNAc
# Procedure, shortened: as §1
# [18] = biological target: Gal(b1-4)GlcNAc(b1-3)Gal(b1-4)GlcNAc(b1-3)Gal(b1-4)GlcNAc
# Procedure, shortened: as §1
binder,measurement,setting,value
B1,glycan array binding signal (z-score),[1],-0.117
same,glycan array binding signal (z-score),[2],-0.095
same,glycan array binding signal (z-score),[3],-0.163
same,glycan array binding signal (z-score),[4],-0.031
same,glycan array binding signal (z-score),[5],-0.127
same,glycan array binding signal (z-score),[6],-0.083
same,glycan array binding signal (z-score),[7],-0.102
same,glycan array binding signal (z-score),[8],-0.145
same,glycan array binding signal (z-score),[9],-0.128
same,glycan array binding signal (z-score),[10],-0.08
same,glycan array binding signal (z-score),[11],-0.144
same,glycan array binding signal (z-score),[12],14.9
same,glycan array binding signal (z-score),[13],0.588
same,glycan array binding signal (z-score),[14],0.068
same,glycan array binding signal (z-score),[15],0.102
same,glycan array binding signal (z-score),[16],-0.035
same,glycan array binding signal (z-score),[17],0.121
same,glycan array binding signal (z-score),[18],1.4

# Source: the supplement of paper PMC8728848
